Binding signal data for 42 sequences are collected here from publication PMC7819943, “Rice protein-binding microarrays: a tool to detect cis-acting elements near promoter regions in rice”.

Some of the results follow.

The target of this assay is T1, OsWOX13 (Oryza sativa, UniProt Q5QMM3 1-267).
T1 sequence: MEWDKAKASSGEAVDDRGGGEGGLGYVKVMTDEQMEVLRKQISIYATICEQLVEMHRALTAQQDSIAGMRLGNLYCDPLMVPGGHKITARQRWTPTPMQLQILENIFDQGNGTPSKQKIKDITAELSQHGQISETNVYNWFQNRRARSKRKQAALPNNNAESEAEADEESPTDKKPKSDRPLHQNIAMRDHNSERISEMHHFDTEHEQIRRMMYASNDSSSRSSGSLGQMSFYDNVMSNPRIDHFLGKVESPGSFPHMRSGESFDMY
The assay can be described thus: protein-binding microarray (RPBM); PBS, 2% BSA, 51.3 ng/ul salmon testes DNA, 50 uM zinc acetate, 200 nM TF, 25 C, 1 h; high values mean tight binding. The note with it: protein: recombinant; tags: N-terminal polyhistidine and DsRed monomer fusion (pET32a); label: CyDye5-dUTP incorporated in the synthesized complementary strand; 3' TTTTT single-stranded linker to array surface; dsDNA, one strand shown. The method in brief: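 Per-feature fluorescence intensity (arbitrary units), read on an Axon 4000B scanner, is the binding signal. Transcription factors carrying an N-terminal polyhistidine tag and DsRed fusion were expressed in E. coli BL21-CodonPlus and purified on Ni–NTA. A custom Agilent array, made double-stranded by primer extension with Cy5-dUTP and blocked with 2% BSA, was incubated with 200 nM protein in PBS, 2% BSA, salmon testes DNA and 50 µM zinc acetate at 25 °C for 1 h and then washed.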
As to “CTTAATTGCACCGGAGTTTCGTGCCGAACAGACCTGCCAGCGGAGTCACCTAGTGCAG”, the binding signal is 44300 fluorescence intensity (a.u.).

On to “ATTGATTTATTGCTATAAATGCACCCCATCCTTTCACTTACGGAGTCACCTAGTGCAG”, for which the binding signal is 33100 fluorescence intensity (a.u.).

With “ATCAAAATTGACTCCTATTCTCGTAGAGTCGTATGGTGGCCGGAGTCACCTAGTGCAG”, the binding signal is 23100 fluorescence intensity (a.u.).

Consider “CTATTTTAAAGATTGATCTGATTTTAGAAATAGCAACGTTCGGAGTCACCTAGTGCAG”, for which the binding signal was 9470 fluorescence intensity (a.u.).

Take “AATAATTGAAATACTAAAGTGGGAGAGAGAAATAATCCTTCGGAGTCACCTAGTGCAG”: the binding signal is 27600 fluorescence intensity (a.u.).

For the sequence “ACTATAGTCAAAATTTAAATTTTCAGAATGTAATTTTGGACGGAGTCACCTAGTGCAG”, the binding signal is 3820 fluorescence intensity (a.u.).

Consider “ATGTAATTTTCCGTGTCTATACTTATTTGGTCCAAGAAATCGGAGTCACCTAGTGCAG”, for which the binding signal is 7200 fluorescence intensity (a.u.).

Consider “ACACTAAATTAATGTATGCAATGTCCATTGGTAAATAACTCGGAGTCACCTAGTGCAG”, for which the binding signal was 14900 fluorescence intensity (a.u.).

As to “TTTATAAATTATTTAATAAATTATTATTAGAATTTATATTCGGAGTCACCTAGTGCAG”, the binding signal was 10100 fluorescence intensity (a.u.).

With “CCATAATTTTGCAAAGACATCAAACCAAATAAAACCAATGCGGAGTCACCTAGTGCAG”, the binding signal is 6680 fluorescence intensity (a.u.).

For “TGTTGACAGTTACAGAGACTGGAGTAAGCTGGACGGCATACGGAGTCACCTAGTGCAG”, the binding signal is 13800 fluorescence intensity (a.u.).

Regarding “TCTGTTTGATGGGCTACTATAATTAGTAGCAGAAAATGCACGGAGTCACCTAGTGCAG”, the binding signal was 7260 fluorescence intensity (a.u.).

Consider “AGCAAATTTAAATTTGATAGTATAGAATTGGTTCTGAGGTCGGAGTCACCTAGTGCAG”, for which the binding signal was 52400 fluorescence intensity (a.u.).

On to “CTCTAATTAATCCTAAAGCAGTGATATGCTTGATGAAGCACGGAGTCACCTAGTGCAG”, for which the binding signal is 26700 fluorescence intensity (a.u.).

In the case of “ATGTTAATATAAATGCTAAATCAATTATGTGAGTGAATTACGGAGTCACCTAGTGCAG”, the binding signal was 6700 fluorescence intensity (a.u.).

Consider “AAGCTTGATGGAAACCTTGGTCATCTGGAGAGTTTTGGGCCGGAGTCACCTAGTGCAG”, for which the binding signal is 5580 fluorescence intensity (a.u.).

“AATTTAGAATTTTAATCCTGTAATTGAAAATTTGGTAAAACGGAGTCACCTAGTGCAG”: the binding signal was 4810 fluorescence intensity (a.u.).

Turning to “TATTTGTCACATCAATCACTTCTAATTCAAAATTTTCTTTCGGAGTCACCTAGTGCAG”, the binding signal was 14300 fluorescence intensity (a.u.).

For “GTGTGATTTGCTAATTGGGTTTGTTATGAAGCTGGTTATCCGGAGTCACCTAGTGCAG”, the binding signal was 54000 fluorescence intensity (a.u.).

In the case of “TAAAATTAATAGAGATCGTGGGAACAAATCCTTTTACATACGGAGTCACCTAGTGCAG”, the binding signal was 4200 fluorescence intensity (a.u.).

Consider “ATTACCAAATTTGGTCGTTAACACATACAAGTTACTCCCTCGGAGTCACCTAGTGCAG”, for which the binding signal is 6930 fluorescence intensity (a.u.).

In the case of “AAAATACTTAATTTACTATGATAAGCACGTCAATAATCAGCGGAGTCACCTAGTGCAG”, the binding signal was 8700 fluorescence intensity (a.u.).

Regarding “ATGTAGATTAGAACTTTTGACTTTATTGCATCAACTAGTGCGGAGTCACCTAGTGCAG”, the binding signal is 15800 fluorescence intensity (a.u.).

Regarding “CGGCTGATAATTAAGCTAACAACTTACTGTGACTGACTTGCGGAGTCACCTAGTGCAG”, the binding signal is 13900 fluorescence intensity (a.u.).

For “ACAGATTAATTAGGCTTAATATATTCATATCGCAGTTTACCGGAGTCACCTAGTGCAG”, the binding signal is 50500 fluorescence intensity (a.u.).

For “TGAAATTGCATATTTGTGGAGTGATATATCACATGTTAATCGGAGTCACCTAGTGCAG”, the binding signal is 4410 fluorescence intensity (a.u.).

“ACAAAACTAATAACAAAACAAATTACAGATTCCGTCAGAACGGAGTCACCTAGTGCAG”: the binding signal is 3400 fluorescence intensity (a.u.).

In the case of “CACAATCATAATCATTCTTTTCATGTATTTTCTCAATCAACGGAGTCACCTAGTGCAG”, the binding signal was 5880 fluorescence intensity (a.u.).

As to “TTAAACATTTCTGACAATAACTGGATCAATTGTATAGGTACGGAGTCACCTAGTGCAG”, the binding signal was 3840 fluorescence intensity (a.u.).

Consider “TGATTAATTAAGTATTAGTTTATCTTAAAATGATTAATATCGGAGTCACCTAGTGCAG”, for which the binding signal is 3500 fluorescence intensity (a.u.).

Regarding “CTTAAATTGATTTATTTTGGAACGGAGAGAGTAATATGCACGGAGTCACCTAGTGCAG”, the binding signal was 53500 fluorescence intensity (a.u.).

Consider “TTCCAAACACAGCCTAATTAAGCTAGCTGTGTCATCCGACCGGAGTCACCTAGTGCAG”, for which the binding signal is 3370 fluorescence intensity (a.u.).

Regarding “TCCAATAGATATAACAATAAATTTTCATGTTATAACGGGACGGAGTCACCTAGTGCAG”, the binding signal is 4920 fluorescence intensity (a.u.).

“GGAGAAATTTAAATTGGAAGTGGTTAATGTGACATGTAGTCGGAGTCACCTAGTGCAG”: the binding signal is 34900 fluorescence intensity (a.u.).

On to “GGCATTGACGTGACACTCACGTGACAATTATATCTCGGAACGGAGTCACCTAGTGCAG”, for which the binding signal is 5080 fluorescence intensity (a.u.).

Turning to “AAATCATTGTCGATCAATCAAATCTACCTCGTTCTGGAGACGGAGTCACCTAGTGCAG”, the binding signal is 14500 fluorescence intensity (a.u.).

For the sequence “AATTAATTAGGCTCAATAGATTCGTCTCGCGAATTAGTCTCGGAGTCACCTAGTGCAG”, the binding signal is 33500 fluorescence intensity (a.u.).

Consider “TTTGATAGGTGCAACAACTCTTTGTTAGTCCATTTGGCTACGGAGTCACCTAGTGCAG”, for which the binding signal was 7540 fluorescence intensity (a.u.).

Take “AGCGATGGATAATTTAGTGATCGGTTTCCATGGCAGCGTTCGGAGTCACCTAGTGCAG”: the binding signal was 4950 fluorescence intensity (a.u.).

Consider “TGTTGGGTTGGGTTGGGTTGGGTTGGGTCCGTCCGATGAACGGAGTCACCTAGTGCAG”, for which the binding signal is 9220 fluorescence intensity (a.u.).

Turning to “TACCAACCAATTAGTGCTAATAGGTAGCATTTTCTGTAGTCGGAGTCACCTAGTGCAG”, the binding signal was 16100 fluorescence intensity (a.u.).

Take “TATTGACTGCAACAATAATCATTATTACATGAAACATTATCGGAGTCACCTAGTGCAG”: the binding signal was 15800 fluorescence intensity (a.u.).
